The chains are these.
B1: PhoQ; a variant is named by its letters at X, in order, P23837 (parent)
chain: MKKLLRLFFPLSLRVRFLLATAAVVLVLSLAYGMVALIGYSVSFDKTTFRLLRGESNLFYTLAKWENNKLHVELPENIDKQSPTMTLIYDENGQLLWAQRDVPWLMKMIQPDWLKSNGFHEIEADVNDTSLLLSGDHSIQQQLQEVREDDDDAEMTHSVAVNVYPATSRMPKLTIVVVDTIPVELKSSYMVWSWFIYVLSANLLLVIPLLWVAAWWSLRPIEALAKEVRELEEHNRELLNPATTRELTSLVRNLNRLLKSERERYDKYRTTLTDLTHSLKTPLXXLQXXLRSLRSEKMSVSDAEPVMLEQISRISQQIGYYLHRASMRGGTLLSRELHPVAPLLDNLTSALNKVYQRKGVNISLDISPEISFVGEQNDFVEVMGNVLDNACKYCLEFVEISARQTDEHLYIVVEDDGPGIPLSKREVIFDRGQRVDTLRPGQGVGLAVAREITEQYEGKIVAGESMLGGARMEVIFGRQHSAPKDE

The list shows a part of the results.

This experiment covers variants of B1. Nature of the experiment: enrichment ratio after two sorts for PhoP signalling (ratio (wild type AVST 3.29)); higher = more functional. Conditions: with PhoP (E. coli).
As for GSCY, the enrichment ratio was found to be 1.12.
LFIW: the enrichment ratio was at most 0.25.
The value for IGFL was at most 0.25; that for NSKY was at most 0.25.
The figure for FYWP is at most 0.25; for AYNR it is at most 0.25; for KIFD it is at most 0.25.
With KLNT, the enrichment ratio is at most 0.25.
Take RHFR: the enrichment ratio was at most 0.25.
For NHTD, the enrichment ratio is at most 0.25.
Consider NLGE, for which the enrichment ratio is at most 0.25.
For the variant YTVI, the enrichment ratio was at most 0.25.
For TWHI, the enrichment ratio was at most 0.25.
Take HEGN: the enrichment ratio is at most 0.25.
The figure for TVSS is 11.6; for QNLQ it is at most 0.25; for IPLD it is at most 0.25.
Regarding SPLE, the enrichment ratio is at most 0.25.
In the case of KRVT, the enrichment ratio is at most 0.25.
The value for AIQS was at most 0.25.
On to TFDW, for which the enrichment ratio was at most 0.25.
Turning to SSEN, the enrichment ratio was at most 0.25.
For STIT, the enrichment ratio is 2.03.
On to WKRH, for which the enrichment ratio was at most 0.25.
Consider ETND, for which the enrichment ratio was at most 0.25.
Turning to DNAE, the enrichment ratio was at most 0.25.
Regarding AAIQ, the enrichment ratio was 10.8.
Turning to KMHN, the enrichment ratio was at most 0.25.
Consider IKMA, for which the enrichment ratio was at most 0.25.
Consider VSDE, for which the enrichment ratio is at most 0.25.
Consider VRCH, for which the enrichment ratio is at most 0.25.
As for VRDD, the enrichment ratio was at most 0.25.
For the variant TVNH, the enrichment ratio stood at 9.25.
Regarding QHAM, the enrichment ratio was at most 0.25.
The figure for LNDD is at most 0.25; for CHLF it is at most 0.25.
The figure for AEEV is 2.19; for SWYL it is at most 0.25; for AELD it is 11.4.
The figure for SHCG is 16.6; for DDGS it is at most 0.25; for YHCR it is at most 0.25.
Regarding MPSW, the enrichment ratio was at most 0.25.
The figure for DHIV is at most 0.25.
The value for IEMG was 2.66; that for RWVQ was at most 0.25; that for IKDS was at most 0.25.
The figure for DVRH is at most 0.25; for FLSH it is at most 0.25; for TCYW it is at most 0.25.
For the variant YYKV, the enrichment ratio is at most 0.25.
For RDGR, the enrichment ratio was at most 0.25.
With HDAP, the enrichment ratio is at most 0.25.
Regarding NHPF, the enrichment ratio is at most 0.25.
For NQYP, the enrichment ratio was at most 0.25.
The value for ILSA was at most 0.25; that for IIGR was at most 0.25.
Take GVSK: the enrichment ratio was at most 0.25.
Consider FKEP, for which the enrichment ratio is at most 0.25.
Consider IQAT, for which the enrichment ratio was at most 0.25.
As to SAMI, the enrichment ratio is 8.6.
Regarding LNTA, the enrichment ratio is at most 0.25.
Turning to RQRQ, the enrichment ratio was at most 0.25.
As to VDPW, the enrichment ratio is at most 0.25.
Consider DISW, for which the enrichment ratio was at most 0.25.
For VGRS, the enrichment ratio was at most 0.25.
The figure for SNIP is at most 0.25; for YKKY it is at most 0.25; for LDNP it is at most 0.25.
For MDMR, the enrichment ratio is at most 0.25.
The figure for ASTV is 12.1.
Turning to YLTF, the enrichment ratio worked out at 0.333.
Regarding GYDG, the enrichment ratio was at most 0.25.
On to SHRW, for which the enrichment ratio is at most 0.25.
Regarding TNHS, the enrichment ratio was at most 0.25.
Take PTHI: the enrichment ratio is at most 0.25.
With DDQQ, the enrichment ratio was at most 0.25.
The figure for TEHW is at most 0.25.
In the case of QLVA, the enrichment ratio was at most 0.25.
Regarding MEAL, the enrichment ratio is 8.16.
On to YWFH, for which the enrichment ratio was at most 0.25.
Consider EIDS, for which the enrichment ratio was at most 0.25.
Turning to MSKE, the enrichment ratio was at most 0.25.
INFW: the enrichment ratio was at most 0.25.

Values taken from a collection of fitness landscapes (doi:10.1126/science.1257360).
